Source: publication PMC4860839, “Structures of the APC–ARM domain in complexes with discrete Amer1/WTX fragments reveal that it uses a consensus mode to recognize its binding partners” (Cell Discovery, 2015)
No constants are given. Whether binding was seen depends on the method and setting. Some entries that bind do so weakly or less than the wild type. For part of these data: Where a sequence is shown, tags or fusion partners need not be part of it. Each block holds one molecule with its values, some of them ahead of it.

Legend:
[1] = target: T1, GST-Amer1 (325–335), core A1 (human); test: ITC; ITC200, 25 °C; 50 mM HEPES pH 7.5, 300 mM NaCl, 1 mM EDTA; typically 200 μM APC–ARM injected into 20 μM GST-Amer1 fragment, or 1 mM GST-Amer1 fragment into 80 μM APC–ARM; single-site model; both purified
T1 construct: human Amer1/WTX residues 325–335; The results call the ITC samples peptides; the ITC methods name GST-Amer1 proteins; also called Amer1-A1; not shown: GST, N-terminal, kept
T1 chain: LTGCGDIIAEQ

[2] = target: T2, GST-Amer1 (496–508), core A2 (human); test: as above
T2 construct: human Amer1/WTX residues 496–508; The results call the ITC samples peptides; the ITC methods name GST-Amer1 proteins; also called Amer1-A2; not shown: GST, N-terminal, kept
T2 chain: PRDSYSGDALYEF

[3] = target: T1, GST-Amer1 (325–335), core A1; test: pull-down; GST-Amer1 fragments pre-immobilised on the GST affinity column, APC–ARM protein added at 4 °C; wash 25 mM Tris-HCl pH 8.0, 250 mM NaCl, 1 mM EDTA, 14 mM β-mercaptoethanol; glutathione elution, SDS–PAGE, Coomassie; both purified
[4] = target: T2, GST-Amer1 (496–508), core A2; test: as above
[5] = target: T3, Amer1 (496–508) D503A (human) (UniProt Q5JTC6); test: ITC; ITC200, 25 °C; 50 mM HEPES pH 7.5, 300 mM NaCl, 1 mM EDTA; typically 200 μM APC–ARM injected into 20 μM GST-Amer1 fragment, or 1 mM GST-Amer1 fragment into 80 μM APC–ARM; single-site model; both purified
T3 sequence: PRDSYSGAALYEF

[6] = target: T4, Amer1 (496–508) L505D (human) (UniProt Q5JTC6); test: as above
T4 sequence: PRDSYSGDADYEF

[7] = target: pBTM-APC–ARM (residues 308–789) K516E (human) (UniProt P25054); test: two-hybrid; L40 yeast, APC–ARM in pBTM116 (bait), Amer1 sites in pVP16 (prey); β-galactosidase activity and growth on –His; 7 mM (A4) or 10 mM (A1, A2, A3) 3-aminotriazole
[8] = target: pBTM-APC–ARM (residues 308–789) M717K (human) (UniProt P25054); test: as above
[9] = target: pBTM-APC–ARM (residues 308–789) N507K (human) (UniProt P25054); test: as above
[10] = target: pBTM-APC–ARM (residues 308–789) N550K (human) (UniProt P25054); test: as above
[11] = target: pBTM-APC–ARM (residues 308–789) R549E (human) (UniProt P25054); test: as above
[12] = target: pBTM-APC–ARM (residues 308–789), two-hybrid bait (human) (UniProt P25054); test: as above
[13] = target: T5, Amer1 (766–777) (human) (UniProt Q5JTC6); test: ITC; ITC200, 25 °C; 50 mM HEPES pH 7.5, 300 mM NaCl, 1 mM EDTA; typically 200 μM APC–ARM injected into 20 μM GST-Amer1 fragment, or 1 mM GST-Amer1 fragment into 80 μM APC–ARM; single-site model; both purified
T5 sequence: TVSFSQALVEFT

[14] = target: T6, Amer1 (786–823) (human) (UniProt Q5JTC6); test: as above
T6 sequence: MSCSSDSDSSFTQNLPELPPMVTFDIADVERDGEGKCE

[15] = target: T5, Amer1 (766–777) (human); test: pull-down; GST-Amer1 fragments pre-immobilised on the GST affinity column, APC–ARM protein added at 4 °C; wash 25 mM Tris-HCl pH 8.0, 250 mM NaCl, 1 mM EDTA, 14 mM β-mercaptoethanol; glutathione elution, SDS–PAGE, Coomassie; both purified
[16] = target: T6, Amer1 (786–823) (human); test: as above

binding [1]: no binding
binding [2]: no binding
binding [3]: no binding
binding [4]: no binding
Molecule: APC (407–751) N507K (from UniProt P25054 407-751) (domain or fragment)

binding [1]: no binding
binding [2]: no binding
Molecule: APC (407–751) K516E (from UniProt P25054 407-751) (domain or fragment)

binding [5]: no binding
binding [6]: no binding
B1: APC–ARM, human APC (407–751), N-terminally His-tagged (domain or fragment, UniProt P25054 407-751, looked up)
chain: LHLLEQIRAYCETCWEWQEAHEPGMDQDKNPMPAPVEHQICPAVCVLMKLSFDEEHRHAMNELGGLQAIAELLQVDCEMYGLTNDHYSITLRRYAGMALTNLTFGDVANKATLCSMKGCMRALVAQLKSESEDLQQVIASVLRNLSWRADVNSKKTLREVGSVKALMECALEVKKESTLKSVLSALWNLSAHCTENKADICAVDGALAFLVGTLTYRSQTNTLAIIESGGGILRNVSSLIATNEDHRQILRENNCLQTLLQHLKSHSLTIVSNACGTLWNLSARNPKDQEALWDMGAVSMLKNLIHSKHKMIAMGSAAALRNLMANRPAKYKDANIMSPGSSLPS
notes: human APC, armadillo repeat (ARM) domain, residues 407–751; source: E. coli BL21(DE3), purified (Ni2+-NTA, Superdex200)

binding [7]: binds
binding [8]: no binding
binding [9]: binds
binding [10]: binds
binding [11]: binds
binding [12]: binds
B2: Amer1-A3 (murine, residues 721–838), two-hybrid prey (domain or fragment, UniProt Q7TS75 721-838)
chain: CLMQLFQSDAMFEPDMQEANFGGSPRKAYPSYSPPEEPEEEEEEKEGNATVSFSQALVEFTSNGNLFTSMSYSSDSDSSFTQNLPELPPMVTFDIADVERDGEGKCEENPEFNNDEDL

binding [13]: no binding
binding [14]: no binding
binding [15]: no binding
binding [16]: no binding
B3: APC–ARM, human APC (407–775), N-terminally His-tagged (domain or fragment, UniProt P25054 407-775, looked up)
chain: LHLLEQIRAYCETCWEWQEAHEPGMDQDKNPMPAPVEHQICPAVCVLMKLSFDEEHRHAMNELGGLQAIAELLQVDCEMYGLTNDHYSITLRRYAGMALTNLTFGDVANKATLCSMKGCMRALVAQLKSESEDLQQVIASVLRNLSWRADVNSKKTLREVGSVKALMECALEVKKESTLKSVLSALWNLSAHCTENKADICAVDGALAFLVGTLTYRSQTNTLAIIESGGGILRNVSSLIATNEDHRQILRENNCLQTLLQHLKSHSLTIVSNACGTLWNLSARNPKDQEALWDMGAVSMLKNLIHSKHKMIAMGSAAALRNLMANRPAKYKDANIMSPGSSLPSLHVRKQKALEAELDAQHLSETFDN
notes: human APC, ARM domain, residues 407–775; source: E. coli BL21(DE3), purified (Ni2+-NTA, Superdex200)
